Measurements published in PubChem BioAssay (NCATS).
Values joined by “and” are separate entries in the source; they are usually repeats but may differ in a detail not shown here. Identical values can stand only once. Inconclusive results, whose numbers are uncertain, are shown with a selection of clear calls. Where the call is inconclusive, the potency comes from a doubtful curve fit. Active and inactive are the calls of the source. The call rests on the fitted dose curve; in most records, active means well fitted activation curve with a large enough effect; inconclusive means small, poorly fitted or top-dose-only effect; inactive means no such curve, though single readings can be large or run the other way.
Potency means the concentration at half of the fitted maximal effect; tags describe the fitted curve by direction and shape.

The compounds below were run against Cellular tumor antigen p53 (Homo sapiens) (UniProt P04637) (assay: Primary qHTS for small molecule compounds that upregulate eGFP-tagged delta133p53alpha (in N-terminal) cells. (AID 2060322;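 further: cells pre-induced with doxycycline then dosed without doxycycline; nearly all actives have a fitted effect of over 75% in size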;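 on activation: series mostly up to about 56 µM; 0% = DMSO vehicle and 100% = reference activator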)). Settings: NCI-H358 eGFP-delta133p53alpha fluorescence, 24 h; activation: stronger effect = higher value.
Chain of UniProt P04637 (P04637 whole entry, looked up): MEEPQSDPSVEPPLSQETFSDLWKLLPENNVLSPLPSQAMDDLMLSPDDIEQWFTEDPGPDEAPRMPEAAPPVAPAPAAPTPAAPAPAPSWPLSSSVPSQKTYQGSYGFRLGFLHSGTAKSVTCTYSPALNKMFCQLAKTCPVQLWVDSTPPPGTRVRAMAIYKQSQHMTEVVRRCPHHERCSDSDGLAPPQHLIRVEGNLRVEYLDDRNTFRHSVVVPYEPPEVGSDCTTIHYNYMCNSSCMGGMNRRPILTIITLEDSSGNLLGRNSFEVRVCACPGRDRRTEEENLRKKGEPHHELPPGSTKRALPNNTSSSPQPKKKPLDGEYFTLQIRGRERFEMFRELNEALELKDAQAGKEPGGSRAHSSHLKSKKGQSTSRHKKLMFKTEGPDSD
Excerpt: Assay Development and Screening Technology
National Center for Advancing Translational Sciences (NCATS),
National Institute of Health (NIH), Rockville, Maryland
Cellular senescence (CS) is one of the hallmarks of aging and age-related diseases. Senescent cells are characterized by an irreversible growth arrest, an increase in senescence-associated beta-galactosidase (SA-beta-gal) activity and p16INK4a expression, an activation of the DNA damage response pathways, and the emergence of a senescence-associated secretory phenotype (SASP).
Delta133p53alpha, a human/primate-specific p53 protein isoform, delays or inhibits the induction of CS and SASP in various types of human cells, including progeria-derived fibroblasts, primary normal astrocytes, and CD8+ T lymphocytes. Induction of delta133p53alpha with small molecule compounds may provide therapeutic opportunities for inhibition of senescence/SASP-associated pathologies in progeria syndromes, astrocyte-mediated neuroprotection in neurodegenerative diseases, and possibly prevention and treatment of a wider range of senescence- and aging-associated diseases.
Here we report the development and validation of a cell-based quantitative high throughput screening (qHTS) assay in 1,536-well format. This qHTS assay uses the NCI-H358 cell line with doxycycline-inducible expression of enhanced green fluorescent protein (eGFP)-tagged delta133p53alpha, which allows efficient and highly quantitative measurement of the protein levels.
PROTOCOL TABLE (as described by Inglese J, Shamu CE and Guy RK. 2007)
SEQUENCE No. (e.g., 1, 2, 3, etc.); […] (e.g., Cells, Incubation, Reagent, etc.); VALUE; DESCRIPTION.
1; Cells; 4uL; 800 doxycycline treated cells / well in doxycycline-free media, 1536-well black, clear-bottom low base Aurora microplates.
2; Compounds; 23 nL; Kalypsis pin tool (Wako) equipped with 1536-well pin heads, 5-azacytidine positive control.
3; Incubation; 24 hr; 37C, 5% CO2; 95% relative humidity.
4; Aspiration; 1x; BioTek EL406 washer dispenser (Agilent).
5; Fixing; 3.5% paraformaldehyde, BioTek EL406 washer dispenser (Agilent).
6; Washing; 1x PBS; BioTek EL406 washer dispenser (Agilent).
7; Nuclei staining; 1:1000 dilution of Hoechst 33342 (Thermofisher), BioTek EL406 washer dispenser (Agilent).
8; Incubation; 20 min; in the dark at room temperature.
9; Washing; 2x, 1x PBS (ThermoFisher), BioTek EL406 washer dispenser (Agilent).
10; Reagent; 10 uL; 1x PBS per well, sealed with clear adhesive tape.
NOTES (numbers refer to sequence numbers above).
1. NCI-H358 cells expressing eGFP-tagged delta133p53alpha were grown in T75 culture flasks and treated with doxycycline for 24h, at 10 ng/ml for eGFP-D133p53a cells (N-terminal cell) and 100 ng/ml for D133p53a-eGFP cells (C-terminal cells). Cells were trypsinized, counted using a Counted 3 Automated Cell Counter (Thermo Fisher), and diluted to a concentration of 200,000 cells/ml. A Multidrop Combi Reagent Dispenser (ThermoFisher) was used to dispense 800 cells/well in […] of doxycycline-free media, into 1536-well black/clear bottom low base plates (AuroraMicroplates).
2. After plating cells, 23 nl of compound library, DMSO vehicle control or positive control (5-azacytidine) were transferred by Pin Tool (Wako). The plate map layout was the same for each plate: (column 1) non-doxycycline treated cells + DMSO vehicle control; (column 2) doxycycline treated cells + DMSO vehicle control baseline; (column 3) doxycycline treated cells + positive control 57.5 uM final concentration 5-azacytidine; (column 4) doxycycline treated cells + serial dilution of 5-azacytidine, 16-point 1:2 titration spanning 1.8 nM to […] final concentration; (columns 5-48) doxycycline treated cells + titration of library compounds.
3. Cells were incubated at 37 °C, 5 % CO2, 95% RH with breathable metal lid for 24h.
4-10. […] After two washes, 10 ul of 1X PBS (Thermo Fisher) was dispensed to each well. Clear adhesive plate seals (VWR) were applied and plates stored at 4 °C.
11. […]
In the case of `CS(=O)(=O)c1ccc(-c2cnc(N)c(C(=O)Nc3ccccc3)n2)cc1`, the Potency was inconclusive: 12 µM [activator, partial curve, poor fit]. With `COCCn1c2c([n+](Cc3cnccn3)c1C)C(=O)c1ccccc1C2=O` the Potency was inconclusive: 0.0306 µM [activator, full curve]. For `COc1cc(-c2cc(-c3ccc(N4CCNCC4)cc3)cnc2C)cc(OC)c1OC`, the Potency was inconclusive: 37.9 µM [activator, single point]. For `CN1CCc2c(n(Cc3ccc(C(=O)NO)cc3)c3ccccc23)C1`, the Potency was inconclusive: 21.3 µM [activator, partial curve]. With `CO[C@@]1(NC(=O)C(C(=O)O)c2ccc(O)cc2)C(=O)N2C(C(=O)O)=C(CSc3nnnn3C)CO[C@@H]21` (stereo not given in full) the Potency was inconclusive: 15.5 µM [activator, partial curve]. For `CC(C)(C(=O)NCC(F)(F)C(F)(F)F)C(=O)NC1C(=O)Nc2ccccc2-c2ccccc21` (stereo not given), the Potency was inconclusive: 15.1 µM [activator, partial curve, poor fit]. `C=C(C)C1Cc2c(ccc3c2OCC(c2ccc(O)cc2O)C3)O1` (stereo not given) was tested, and the activation was inactive: 32.1%. `Nc1cc(-c2ccncc2)c[nH]c1=O` was tested, and the Potency was inconclusive: 43.7 µM [activator, single point]. In the case of `C[C@@H]1O[C@@H](O[C@@H]2[C@@H](O)[C@H](O[C@H]3CC[C@@]4(C)C(CC[C@]5(C)C4CC=C4[C@@H]6CC(C)(C)CC[C@]6(C(=O)O[C@@H]6O[C@H](CO)[C@@H](O)[C@H](O)[C@H]6O)CC[C@]45C)C3(C)C)O[C@H](C(=O)O)[C@H]2O)[C@H](O)[C@H](O)[C@H]1O` (stereo not given in full), the Potency was inconclusive: 4.04 µM [activator, single point]. With `Cn1c(N2CCCCS2(=O)=O)nc(C(=O)NCc2ccc(F)cc2)c(O)c1=O` the Potency was inconclusive: 0.0385 µM [activator, full curve, poor fit]. In the case of `COc1cc(/C=C(\C#N)C(=O)c2ccc(O)c(O)c2)cc(I)c1O`, the activation was inactive: 0.259%. With `C[C@]12CC[C@@H]3c4ccc(O)c(O)c4CC[C@H]3[C@@H]1CCC2=O` the Potency was inconclusive: 3.79 µM [activator, single point]. For `O=S(=O)(c1cccc2c(I)cccc12)N1CCCNCC1`, the Potency was inconclusive: 30.1 µM [activator, partial curve, poor fit]. In the case of `O=C(Nc1ccc(Cl)cc1)Nc1ccc(Cl)c(C(F)(F)F)c1`, the Potency was inconclusive: 12.3 µM [activator, partial curve, poor fit]. With `Cn1cnc2c(NCc3ccccc3)nc(NCCO)nc21` the activation was inactive: -37%. With `O=c1[nH]ccc2nc(-c3ccc(CN4CCC(c5nc(-c6ccccn6)n[nH]5)CC4)cc3)c(-c3ccccc3)cc12` the Potency was inconclusive: 33.8 µM [activator, single point]. `COc1cc(OC)c(NC(=O)Nc2cc(C)on2)cc1Cl` was tested, and the Potency was inconclusive: 0.968 µM [activator, full curve, poor fit]. `Cc1nc2ccccn2c(=O)c1CCN1CCC(C(=O)c2ccc(F)cc2)CC1` was tested, and the activation was inactive: 0.565% and inactive: -12%. For `CNC1CCC(N(Cc2cccc(-c3ccncc3)c2)C(=O)c2sc3ccccc3c2Cl)CC1` (stereo not given), the Potency was active: 24.3 µM and active: 30.1 µM. In the case of `CC(C)c1cc2c(c(O)c1O)[C@@]13CCCC(C)(C)C1[C@@H](O)[C@@H]2OC3=O` (stereo not given in full), the activation was inactive: -5.34%. With `CCN(CC)CCOc1ccccc1C(=O)CCc1ccccc1` the Potency was inconclusive: 15.5 µM [activator, single point]. In the case of `C[C@@H]1C[C@H]2O[C@@]3(O[C@@H]2C(C)(C)O)C(O)[C@@]2(C)C4CCC5C(C)(C)[C@@H](O[C@H]6OC[C@H](O)[C@@H](O)[C@@H]6O)CC[C@@]56C[C@@]46CC[C@]2(C)C13` (stereo not given in full), the activation was inactive: -26.7%. `C[C@@H]1O[C@@H](O[C@H]2[C@H](OC(=O)C34CCC5(C)C(=CCC6C7(C)CC(O)C(O[C@@H]8O[C@H](C(=O)O)[C@@H](O)[C@H](O)[C@H]8O)C(C)(C(=O)O)C7CCC65C)C3CC(C)(C)CC4O)O[C@H](C)[C@@H](O)[C@@H]2O)[C@H](O)[C@@H](O[C@@H]2OC[C@](O)(CO)[C@H]2O[C@@H]2O[C@H](CO)[C@@H](O)[C@H](O)[C@H]2O)[C@H]1O` (stereo not given in full) was tested, and the activation was inactive: 8.4%. In the case of `CON(C)C(=O)N1N=C(c2cc(F)ccc2F)S[C@]1(CCCN)c1ccccc1`, the Potency was inconclusive: 0.0014 µM [activator, full curve, poor fit]. In the case of `O=C(/C=C/n1cnc(-c2cc(C(F)(F)F)cc(C(F)(F)F)c2)n1)NNc1cnccn1`, the Potency was inconclusive: 2.13 µM [activator, full curve, poor fit]. In the case of `CC(C)COc1ccc(CNC(=O)N(Cc2ccc(F)cc2)C2CCN(C)CC2)cc1`, the activation was inactive: -15.7%. With `COc1c(C)cc(NC(=O)c2nn(Cc3ccc(F)cc3)c3c2CN(C(=O)c2ccc[nH]2)C[C@]3(C)C(N)=O)cc1C` the activation was inactive: 0.333%. `Nc1nccc(-c2ccc3noc(-c4ccc(Cl)cc4)c3c2)n1` was tested, and the Potency was inconclusive: 43.2 µM [activator, single point] and active: 34.3 µM. With `CN1CCN(C2Cc3ccccc3Sc3ccc(Cl)cc32)CC1` (stereo not given) the Potency was inconclusive: 24.6 µM [activator, partial curve, poor fit]. `CNC(=O)c1cc(Oc2ccc(NC(=O)Nc3ccc(Cl)c(C(F)(F)F)c3)c(F)c2)ccn1` was tested, and the Potency was inconclusive: 26.9 µM [activator, single point]. In the case of `O=C(O[C@H]1[C@@H]2C[C@@H]3OC[C@](O)([C@@H]1Cl)[C@H]2C(O[C@@H]1O[C@H](CO)[C@@H](O)[C@H](O)[C@H]1O)O3)c1ccc(O)c(O)c1` (stereo not given in full), the activation was inactive: -22.1%. For `Cc1ccc(O)cc1`, the Potency was inconclusive: 19.5 µM [activator, single point]. With `COc1cc(Nc2c(C#N)cnc3cc(OCCCN4CCN(C)CC4)c(OC)cc23)c(Cl)cc1Cl` the Potency was active: 30.9 µM and inconclusive: 34.3 µM [activator, single point] and active: 23.9 µM. With `Nc1cccc(-c2cc3c(Oc4cccc(O)c4)ncnc3[nH]2)c1` the Potency was inconclusive: 24.3 µM [activator, partial curve, poor fit]. With `CC(C)(O)C(=O)N1CCN(c2ccc(C(F)(F)F)c(C3=C(c4c[nH]c5ccccc45)C(=O)NC3=O)c2)CC1` the Potency was active: 26.9 µM. For `CCCCNc1ncc2c(-c3ccc(S(=O)(=O)N4CCOCC4)cc3)nn(C3CCC(O)CC3)c2n1` (stereo not given), the Potency was inconclusive: 10.7 µM [activator, partial curve]. In the case of `CNC(=O)c1cc(Oc2ccc(NC(=O)Nc3cc(C(C)(C)C)nn3-c3ccc4ncccc4c3)c(F)c2)ccn1`, the Potency was inconclusive: 21.7 µM [activator, partial curve, poor fit]. `CCOc1ccn(-c2ccc(F)cc2)c(=O)c1C(=O)Nc1ccc(Oc2ccnc(N)c2Cl)c(F)c1` was tested, and the Potency was inconclusive: 9.68 µM [activator, full curve, poor fit]. In the case of `CCN(C(=O)c1c(O)c2c(Cl)cccc2n(C)c1=O)c1ccccc1`, the Potency was inconclusive: 43.2 µM [activator, partial curve, poor fit]. `CC(C)(C)c1ccc(O)c(O)c1` was tested, and the Potency was inconclusive: 35.5 µM [activator, single point].
